# Results as given in PubChem BioAssay AID1745853 (National Center for Advancing Translational Sciences (NCATS), 2022).
# This is one part of the list. The main result of the screen is listed elsewhere. These columns were measured beside it and carry no call.
# Assays:
# Assay in all cases: Primary Screen for Target Class Profiling of Small Molecule Inhibitors of Methyltransferases
# [1] = target: Glycine N-methyltransferase (Homo sapiens) (UniProt Q14749); conditions: purified enzyme, MTase-Glo SAH luminescence; measured here: GNMT inhibition; at 40 µM; stronger effect = lower value
# Method in brief: (§1)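 Each enzyme was assayed with SAM and its substrate. SAH formation detected by MTase-Glo luminescence; single-point 40 uM screen[…].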
# [2] = target: Guanidinoacetate N-methyltransferase (Homo sapiens) (UniProt Q14353); conditions: purified enzyme, MTase-Glo SAH luminescence; measured here: GAMT inhibition; at 40 µM; stronger effect = lower value
# Method in brief: as §1
# [3] = target: Histamine N-methyltransferase (Homo sapiens) (UniProt P50135); conditions: purified enzyme, MTase-Glo SAH luminescence; measured here: HNMT inhibition; at 40 µM; stronger effect = lower value
# Method in brief: as §1
# [4] = target: Nicotinamide N-methyltransferase (Homo sapiens) (UniProt P40261); conditions: purified enzyme, MTase-Glo SAH luminescence; measured here: NNMT inhibition; at 40 µM; stronger effect = lower value
# Method in brief: as §1
# [5] = target: Phenylethanolamine N-methyltransferase (Homo sapiens) (UniProt P11086); conditions: purified enzyme, MTase-Glo SAH luminescence; measured here: PNMT inhibition; at 40 µM; stronger effect = lower value
# Method in brief: as §1
# On the % scale 0 is the no-effect control and ±100 the full control effect.
SMILES,"activity change, negative = inhibition [1]","activity change, negative = inhibition [2]","activity change, negative = inhibition [3]","activity change, negative = inhibition [4]","activity change, negative = inhibition [5]"
O=C(Cn1ccc2cc(S(=O)(=O)N3CCCC3)ccc21)NCCCc1ccccc1,4.01%,3.24%,-1.85%,-3.49%,-2.91%
Cc1nc2ncccn2c1C(=O)N[C@H]1CCOC[C@H]1C1CCOCC1,0.98%,-0.296%,1.14%,0.5%,3.27%
O=C(NCC1CCCN(C(=O)N2CCCC2)C1)c1ccc(-c2ccccc2)cc1 (stereo not given),-11.5%,-3.78%,-5.29%,-13.1%,3.75%
C#CCNCc1cc2cc(OCc3ccccc3)ccc2[nH]1,2.15%,0.361%,9.1%,-16.1%,1.47%
CC1CCC(NC(=O)C2(C)Cn3c(cc4sccc43)C(=O)N2CCCc2ccccc2)CC1 (stereo not given),-5.91%,2.4%,-3.56%,-0.44%,-5.68%
Cc1ccc(Cn2c(=O)c3ccccc3n3c(=O)n(Cc4ccccc4C)nc23)cc1,5.77%,0.551%,5.12%,1.64%,2.96%
CCC(CC)(NC(=O)C(C)C)C(=O)N[C@@H](CCCN=C(N)N)C(=O)NC1(C(=O)NC(c2ccc(F)cc2)c2ccc(F)cc2)CCCC1,4.95%,19.4%,3.78%,-2.05%,-1.53%
Cc1cc(Nc2ncc(Cl)c(Nc3ccccc3S(=O)(=O)C(C)C)n2)c(OC(C)C)cc1C1CCNCC1,0.714%,3.98%,-2.49%,-35.7%,-19.7%
COc1ccc(Cl)cc1S(=O)(=O)NCCn1c(-c2ccc(F)cc2)nc2ccccc21,-1.35%,0%,-0.594%,-10.5%,3.9%
COc1ccc(-c2cc(C(=O)Nc3ccc4c(c3)C(=O)N(C)C3=NCCN34)c3ccccc3n2)cc1,-2.04%,2.33%,2.39%,1.63%,0.216%
CCC(C)NC(=O)c1ccc2c(=O)n(CC(C)C)c3nnc(SCC(N)=O)n3c2c1 (stereo not given),5.89%,0.96%,11%,-1.14%,6.59%
O=C(Nc1ccc(F)cc1)c1ccc2ccnn2c1,-5.91%,-6.77%,-3.24%,-9.81%,-11.3%
O=C(O)Cc1cc(I)c(Oc2ccc(O)c(I)c2)c(I)c1,-29.2%,-5.44%,4.35%,-46.7%,2.76%
Cc1ccc(C(=O)N2CCC(N3C(=O)c4c(c(C)nn4-c4ccccc4)C3C)CC2)cc1 (stereo not given),-7.62%,1.04%,-4.5%,-17.1%,-2.74%
Cc1ccc(C2=NC3(CCN(C(=O)c4ccc(C)c(C)c4)CC3)ON2)cc1,-4.95%,-2.02%,-4.32%,-4.77%,-2.12%
C1CC2(CCN1)CC(OCC1CC1)CCO2 (stereo not given),-2.38%,-2.15%,-1.31%,-4.21%,-2.31%
COc1ccc(CNC(=O)C2(C)Cn3cnc(C(=O)NCc4ccc(F)cc4)c3C(=O)N2C2CC2)cc1 (stereo not given),0.107%,0%,3.49%,-1.34%,4.51%
O=C(C1CC=CC1)N1C[C@@H](COc2cccnc2)[C@H](c2ccccn2)C1,-8.9%,-5.24%,-3.87%,-11.3%,-11.8%
Cc1ccc(-c2cc(-c3ccncc3)c3cncn3c2)cn1,-40.6%,-13.1%,-17.6%,-32.1%,-18.1%
CCOc1ccc(C(=O)Cn2nc3n(C(C)C)c(=O)c4ccc(C(=O)NC(C)CC)cc4n3c2=O)cc1 (stereo not given),5.9%,5.93%,5.79%,0.123%,3.55%

SMILES,"activity change, negative = inhibition [1]","activity change, negative = inhibition [2]","activity change, negative = inhibition [3]","activity change, negative = inhibition [4]","activity change, negative = inhibition [5]"
COc1cccc(NC(=O)CSc2nnc3n(CC(C)C)c(=O)c4cc(F)ccc4n23)c1,0.42%,0%,7.51%,-1.26%,2.88%
CCc1cc2c(cc3n2CC(C)(C(=O)NC2CCCCCC2)N(Cc2cccc(Cl)c2)C3=O)s1 (stereo not given),0.768%,0.152%,3.05%,-0.529%,-0.621%
CC1(CO)CC2C(O)C(=O)C3(CO)CC3(C)C2C1 (stereo not given),0%,9.64%,6.74%,-5.59%,3.44%
CC(=O)N1CCCN(Cc2nnc(C(=O)N3CCC[C@@H]3c3cccc(F)c3)n2-c2cccnc2)CC1,-1.87%,-2.22%,-0.332%,-8.21%,-3.31%
CN(Cc1ccccc1C(F)(F)F)CC1CCCCC1,-6.08%,-5.14%,-1.97%,-8.36%,2.88%
CCCCN1C(=O)c2cc(C(=O)NCc3cccs3)nn2CC1(C)C(=O)NC1CCCC1 (stereo not given),8.75%,0.915%,-3.6%,7.63%,7.2%
CS(=O)(=O)N1Cc2ccccc2CC2(CCN(Cc3ccccn3)C2)C1 (stereo not given),-2.93%,-0.691%,-4.74%,0.236%,1.7%
O=C(c1ccc(Cl)cc1)N1CC(CO)C2(CCNCC2)C1 (stereo not given),-5.62%,-6.21%,-2.23%,-6.04%,-4.04%
Cc1cccc(CC(=O)N[C@@H]2CN(c3ccncn3)C[C@H]2CO)c1,-3.72%,0.281%,-2.76%,-7.64%,-5.61%
CCC(C)(C)C(=O)NCCc1noc(-c2ccccc2)n1,0.307%,0.711%,2.73%,-2.29%,-2.02%
CC1(COc2ccccc2)COc2ccc(C(=O)N3CCN(c4ccccn4)CC3)cc2N1 (stereo not given),-3.69%,-1.23%,-2.1%,-2.66%,-0.783%
CC(C)c1nccn1CCCNC(=O)c1ccc(-c2cccc(F)c2)nc1,-2.95%,-1.06%,-60.6%,-9.57%,-19.1%
NCc1ccc(OCCCc2sc(-c3ccc4c(c3)/C(=N/Nc3nc5ccccc5s3)CCC4)nc2C(=O)O)cc1,-17.9%,-10.8%,-13.1%,-33.4%,-22.3%
O=C1CN(Cc2cc3cc4c(cc3[nH]c2=O)OCO4)CCCN1,-6.83%,-5.84%,-2.85%,-9.89%,-7.52%
COCCOC1CCN(C(=O)c2[nH]nc3c2COc2ccccc2-3)CC1,-31.6%,-6.19%,-2.93%,-10.4%,-9.14%
CC1(C(=O)NCc2ccccc2)Cn2c(cc3ccccc32)C(=O)N1CCCc1ccccc1 (stereo not given),-7.13%,-0.989%,-6.37%,-13.3%,-6.9%
CC(=O)c1c(OCCN2CCCCC2)c(OCCC(C)c2ccc(F)cc2)c2oc(C)nc2c1C (stereo not given),-1.76%,5.2%,-28.4%,-30%,-6.84%
NC(=O)C1CCN(c2nc3c(S(=O)(=O)c4ccccc4)nnn3c3ccccc23)CC1,-8.03%,-2.88%,1.31%,-7.03%,-5.54%
CC(C)=CCC(O)[C@](C)(O)C1[C@H](O)C[C@@]2(C)C3CC=C4C(C[C@H](O)[C@@H](O[C@@H]5O[C@H](CO)[C@@H](O)[C@H](O)[C@H]5O)C4(C)C)[C@]3(C)C(=O)C[C@]12C (stereo not given in full),4.14%,5.83%,9.29%,-7.96%,6.94%
